This note sets out measurements from PMC12820563, “FoxP3 forms a head-to-head dimer in vivo and stabilizes its multimerization on adjacent microsatellites”.

Some of the results follow.

The test has as its target T1, MBP-FoxP1dN (Mus musculus, UniProt P58462 326-579).
T1 sequence: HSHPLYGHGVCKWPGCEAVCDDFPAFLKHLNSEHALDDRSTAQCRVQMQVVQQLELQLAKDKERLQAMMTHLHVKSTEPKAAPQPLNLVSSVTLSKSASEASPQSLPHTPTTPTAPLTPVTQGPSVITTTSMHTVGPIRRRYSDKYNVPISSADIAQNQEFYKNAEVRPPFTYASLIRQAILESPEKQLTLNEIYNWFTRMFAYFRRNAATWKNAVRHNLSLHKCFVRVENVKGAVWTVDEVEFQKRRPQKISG
The experiment in a line: PD-seq (MBP pull-down with sequencing); 20 mM Tris-HCl pH 7.5, 100 mM NaCl, 1.5 mM MgCl2, 0.4 uM protein, 0.1 uM dsDNA library, 30 min, room temperature, amylose pull-down; high values mean tight binding. The note with it: protein: recombinant; tags: His6-MBP; chain copies: 2; dsDNA, one strand shown. The method, boiled down: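 A fragment of mouse FoxP3 or FoxP1 without its N-terminus, carrying a His6-MBP tag and produced in E. coli, was combined at 0.4 µM with a 0.1 µM degenerate double-stranded DNA library filled in with Klenow. The mixture sat for 30 min at room temperature in Tris pH 7.5 buffer containing NaCl and MgCl2. Protein–DNA complexes were captured on amylose resin, washed three times, and the DNA was freed with proteinase K, barcoded by PCR and sequenced on Illumina. Binding is expressed as reads-per-million enrichment of pull-down over input, with replicates pooled.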
For “GATGATTGTTCTCCCAGCTGATGAATTGATGCAATCGAGTAAACAAATTTTCCTAATCTTTCTGTTCAAGCGCCATCTAC”, the binding signal was 1.96 RPM ratio (pull-down/input).

Take “GATGATTGTTCTCCCAGCTGATGAATTAGGACACTCGAGTAAACAAATTTTCCTAATCTTTCTGTTCAAGCGCCATCTAC”: the binding signal is 0.909 RPM ratio (pull-down/input).

Consider “GATGATTGTTCTCCCAGCTGATGAATTAGATGCTTCGAGTAAACAAATTTTCCTAATCTTTCTGTTCAAGCGCCATCTAC”, for which the binding signal was 1.23 RPM ratio (pull-down/input). As for “GATGATTGTTCTCCCAGCTGATGAATTGGCCATCTCGAGTAAACAAATTTTCCTAATCTTTCTGTTCAAGCGCCATCTAC”, the binding signal was 0.827 RPM ratio (pull-down/input). Next, “GATGATTGTTCTCCCAGCTGATGAATTAAATTCGTCGAGTAAACAAATTTTCCTAATCTTTCTGTTCAAGCGCCATCTAC”: 0.908 RPM ratio (pull-down/input); “GATGATTGTTCTCCCAGCTGATGAATTACCCGGTTCGAGTAAACAAATTTTCCTAATCTTTCTGTTCAAGCGCCATCTAC”: 0.848 RPM ratio (pull-down/input). Take “GATGATTGTTCTCCCAGCTGATGAATTGCAATGGTCGAGTAAACAAATTTTCCTAATCTTTCTGTTCAAGCGCCATCTAC”: the binding signal is 1.03 RPM ratio (pull-down/input). For “GATGATTGTTCTCCCAGCTGATGAATTTTATTAATCGAGTAAACAAATTTTCCTAATCTTTCTGTTCAAGCGCCATCTAC” the value was 1.07 RPM ratio (pull-down/input); for “GATGATTGTTCTCCCAGCTGATGAATTAGAGCACTCGAGTAAACAAATTTTCCTAATCTTTCTGTTCAAGCGCCATCTAC”, 0.84 RPM ratio (pull-down/input); for “GATGATTGTTCTCCCAGCTGATGAATTAACAAAATCGAGTAAACAAATTTTCCTAATCTTTCTGTTCAAGCGCCATCTAC”, 1.45 RPM ratio (pull-down/input). For “GATGATTGTTCTCCCAGCTGATGAATTCATCAAGTCGAGTAAACAAATTTTCCTAATCTTTCTGTTCAAGCGCCATCTAC” the value was 0.798 RPM ratio (pull-down/input). For “GATGATTGTTCTCCCAGCTGATGAATTATGCAGATCGAGTAAACAAATTTTCCTAATCTTTCTGTTCAAGCGCCATCTAC” the value was 1.04 RPM ratio (pull-down/input); for “GATGATTGTTCTCCCAGCTGATGAATTTTTGTCCTCGAGTAAACAAATTTTCCTAATCTTTCTGTTCAAGCGCCATCTAC”, 1.02 RPM ratio (pull-down/input); for “GATGATTGTTCTCCCAGCTGATGAATTTGGCTTGTCGAGTAAACAAATTTTCCTAATCTTTCTGTTCAAGCGCCATCTAC”, 0.962 RPM ratio (pull-down/input).

Consider “GATGATTGTTCTCCCAGCTGATGAATTGAATCGATCGAGTAAACAAATTTTCCTAATCTTTCTGTTCAAGCGCCATCTAC”, for which the binding signal was 0.854 RPM ratio (pull-down/input). “GATGATTGTTCTCCCAGCTGATGAATTGACTAGATCGAGTAAACAAATTTTCCTAATCTTTCTGTTCAAGCGCCATCTAC”: the binding signal was 0.992 RPM ratio (pull-down/input). For “GATGATTGTTCTCCCAGCTGATGAATTTGCGGTCTCGAGTAAACAAATTTTCCTAATCTTTCTGTTCAAGCGCCATCTAC” the value was 0.907 RPM ratio (pull-down/input).

On to “GATGATTGTTCTCCCAGCTGATGAATTAACCACGTCGAGTAAACAAATTTTCCTAATCTTTCTGTTCAAGCGCCATCTAC”, for which the binding signal is 0.884 RPM ratio (pull-down/input).

For “GATGATTGTTCTCCCAGCTGATGAATTATTAAGTTCGAGTAAACAAATTTTCCTAATCTTTCTGTTCAAGCGCCATCTAC”, the binding signal is 1.15 RPM ratio (pull-down/input). For the sequence “GATGATTGTTCTCCCAGCTGATGAATTTAGTCATTCGAGTAAACAAATTTTCCTAATCTTTCTGTTCAAGCGCCATCTAC”, the binding signal was 1.02 RPM ratio (pull-down/input). Regarding “GATGATTGTTCTCCCAGCTGATGAATTCCATCACTCGAGTAAACAAATTTTCCTAATCTTTCTGTTCAAGCGCCATCTAC”, the binding signal is 0.855 RPM ratio (pull-down/input).

As for “GATGATTGTTCTCCCAGCTGATGAATTGGAGGATTCGAGTAAACAAATTTTCCTAATCTTTCTGTTCAAGCGCCATCTAC”, the binding signal was 0.842 RPM ratio (pull-down/input). As for “GATGATTGTTCTCCCAGCTGATGAATTATGACAGTCGAGTAAACAAATTTTCCTAATCTTTCTGTTCAAGCGCCATCTAC”, the binding signal is 0.946 RPM ratio (pull-down/input). “GATGATTGTTCTCCCAGCTGATGAATTTGGATGTTCGAGTAAACAAATTTTCCTAATCTTTCTGTTCAAGCGCCATCTAC”: the binding signal is 0.997 RPM ratio (pull-down/input). For the sequence “GATGATTGTTCTCCCAGCTGATGAATTTCTAAGATCGAGTAAACAAATTTTCCTAATCTTTCTGTTCAAGCGCCATCTAC”, the binding signal is 0.869 RPM ratio (pull-down/input). Consider “GATGATTGTTCTCCCAGCTGATGAATTTGTTCTTTCGAGTAAACAAATTTTCCTAATCTTTCTGTTCAAGCGCCATCTAC”, for which the binding signal is 1.3 RPM ratio (pull-down/input). Next, “GATGATTGTTCTCCCAGCTGATGAATTTATTACCTCGAGTAAACAAATTTTCCTAATCTTTCTGTTCAAGCGCCATCTAC”: 1.2 RPM ratio (pull-down/input); “GATGATTGTTCTCCCAGCTGATGAATTAAAGTCGTCGAGTAAACAAATTTTCCTAATCTTTCTGTTCAAGCGCCATCTAC”: 0.861 RPM ratio (pull-down/input); “GATGATTGTTCTCCCAGCTGATGAATTTACAATATCGAGTAAACAAATTTTCCTAATCTTTCTGTTCAAGCGCCATCTAC”: 1.63 RPM ratio (pull-down/input). Regarding “GATGATTGTTCTCCCAGCTGATGAATTACTGGTATCGAGTAAACAAATTTTCCTAATCTTTCTGTTCAAGCGCCATCTAC”, the binding signal was 1.13 RPM ratio (pull-down/input). Take “GATGATTGTTCTCCCAGCTGATGAATTCAGGCGGTCGAGTAAACAAATTTTCCTAATCTTTCTGTTCAAGCGCCATCTAC”: the binding signal is 0.783 RPM ratio (pull-down/input).
